From the supplement of paper PMC11417369
± gives the standard deviation of the averaged measurements. Some of the results follow.

tested on: PfAP2-EXP AP2 domain (GST-tagged); experiment: gcPBM binding intensity (ln(normalized median fluorescence intensity)); higher = stronger DNA binding
Outline: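 The highest Masliner-normalised natural-log median intensity across replicate spots of either probe orientation is reported as binding intensity. GST-tagged P. falciparum DNA-binding domains expressed in E. coli were applied for 1 h to an Agilent 4 × 180k array of primer-extended double-stranded 36-bp intergenic genomic probes plus negative controls, and bound protein was detected with Alexa488 anti-GST antibody and scanned at 488 nm.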

| Sequence | gcPBM binding intensity (ln) |
| --- | --- |
| ATATATAAGAACATATATATTGGAAATATTGAATTT [XGTACX_negctrl_site121] | 8.2 ± 0.54 |
| TAATAATAAAAAATACGTACATATTATTTATATATG [XGTACX_site853] | 8.44 ± 0.17 |
| CATTTTATTCTATATGCATGTTAAAAAATGTGTTGA [TGCATGCA_site128] | 8.6 ± 0.26 |
| AATAAAAATATTATATGTACATATTTTAATATATAT [XGTACX_site1259] | 8.35 ± 0.24 |
| AAAAAAAAAAAGATAAATACAAGTTACACAAAAAAA [GTGCAC_negctrl_site664] | 8.37 ± 0.61 |
| ACGTTGCGACGCAAGGTGCTTATTTTCTTATAAATA | 8.23 ± 0.23 |
| AACAAATTTTTTATTAAACACACAAACATATATATA [CACACA_site8588] | 8.62 ± 0.29 |
| TGTGAATATATCTTTAAAAAGGATAAATAATAATTT [CACACA_negctrl_site507] | 8.21 ± 0.36 |
| GCTCATTGAAATTATACACACCAAATATATAAATAT [CACACA_site5385] | 8.49 ± 0.3 |
| TATGAATATTGCATGTGTACCTATTATCCTTTTAAA [XGTACX_site4311] | 9.11 ± 0.37 |
| ATAATTATTTTCCCGTGTACTTATTTTTTTCAAGTA [XGTACX_site8843] | 9.05 ± 0.45 |
| ATATAAAATAAAAAAAAAAAAAAAAAAAAAAAAAAA [CACACA_negctrl_site1234] | 8.06 ± 0.3 |
| TAATTAAAAAATGAATAAATGAATAAATAAATAAAT [CACACA_negctrl_site838] | 8.52 ± 0.35 |
| TTAATGTTTGAAAGAGTGCACATAACAAAAAAAAAA [GTGCAC_site9623] | 9.15 ± 0.15 |
| TTTTTGTATCCTTTTAATATTAAATAAAAGGAATGT [CACACA_negctrl_site1468] | 8.32 ± 0.37 |
| CAATAAATAATAAATACATGCAAGTATGAAGATATA [TGCATGCA_site859] | 9.67 ± 0.4 |
| TATATATATTTTAACACACACATATATATATTTATA [CACACA_site2765] | 8.54 ± 0.38 |
| TGTTTGATGGTACACGTACACACCTTGCAAATATTT [CACACA_site888] | 9.12 ± 0.37 |
| AATATAAAATAGAAAAATGAAAAAAAAAAAAAGGGT [CACACA_negctrl_site1263] | 8.49 ± 0.092 |
| AATAAGAATTAAAAATGTACAAAAAAATGTATTTAT [XGTACX_site8005] | 8.43 ± 0.28 |
| AAGTATAAAATATTTTGTACTTAAAAAATTATATGG [XGTACX_site2180] | 8.45 ± 0.2 |
| TTTTTTTTTTTTGGTAGTACATAAATATTTTATGGA [XGTACX_site6851] | 8.39 ± 0.38 |

| Sequence | gcPBM binding intensity (ln) |
| --- | --- |
| CATGTTATATATATATGTACTAAAAATATAATATAA [XGTACX_site1978] | 8.47 ± 0.28 |
| AGTGGGATTTTTAATTGTACATAAATAATATCATAA [XGTACX_site4163] | 8.39 ± 0.29 |
| TGCAGGTGTTATTCACGTACGCATTTGATTAAAAAA [XGTACX_site7743] | 8.65 ± 0.4 |
| TAAAATATACAAATTTGTACATATATATGTATGTAT [XGTACX_site1127] | 8.83 ± 0.35 |
| TAATTTTATATAAATTGTACAAAAATATTTTATTAA [XGTACX_site7166] | 8.38 ± 0.38 |
| ATAAAAACATAAAAATGTACATATATATATATATAT [XGTACX_site7165] | 10.1 ± 0.25 |
| ATTAGAAAATAAAATAATAAATAAAATAAAAAAAAA [CACACA_negctrl_site409] | 8.25 ± 0.57 |
| ATGTATATGCAAACATGTACATATATAAACATATAT [XGTACX_site4159] | 8.61 ± 0.36 |
| GTGTTGGGAAAAGGCATGCACTTTTTTTTTTTTTTT | 8.98 ± 0.25 |
| AATATTAGGTTATGTAGTACATAACAATAATTATAC [XGTACX_site5733] | 8.71 ± 0.3 |
| TTTTATTTTATTCAATTTTTACTTTTATAAAAATAT [GTGCAC_negctrl_site578] | 8.54 ± 0.44 |
| ATAAAGAATATAAATACACACTTAAATATATATTAT [CACACA_site6071] | 8.46 ± 0.39 |
| AAGGAATATGTATATACACACAGGTACATATTTATA [CACACA_site6344] | 8.71 ± 0.3 |
| CACAAAAATTTATACACACACATATAAAATATAGAT [CACACA_site6218] | 8.5 ± 0.34 |
| AGTTATTACACACAAACATGCATTAATATCAAAAAA [TGCATGCA_site63] | 8.59 ± 0.35 |
| TTCACTATACAAAGGTGTACTTAATTTTGTCCCATT [XGTACX_site7483] | 8.6 ± 0.33 |
| AAATATATATATAGTACATGCAGTAGATAATTTAAT [TGCATGCA_site299] | 9.4 ± 0.19 |
| AATTCACATGTGAACTAAAAGAATATTATATATATA [CACACA_negctrl_site1632] | 9.055 ± 0.049 |
| ATTAGGTATTTTTTTTGTACATATTATATAATGTGA [XGTACX_site3815] | 8.65 ± 0.4 |
| AATGATCAGATATACACACACACAAAAAAAAAAAAA [CACACA_site7806] | 8.34 ± 0.59 |
| GTAAATAAATAAATAAATAAATATATATATATATAT [CACACA_negctrl_site1737] | 10 ± 0.42 |
| AATAAAAAAAAATTCACACAAAGTTAGATTAACTAT [CACACA_site4224] | 8.23 ± 0.54 |
